Measured values from the supplement of paper PMC8728848.
The list shows a part of the results.

What was measured:
Test in all cases: glycan array binding signal (z-score within array); higher = stronger binding
Settings in all cases: glycan notation: IUPAC condensed, linker removed; mutation: F335Y
Gal3S(b1-4)GlcNAc6S = molecular target: Gal3S(b1-4)GlcNAc6S
Summary of the method: (§1)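 The Consortium for Functional Glycomics database supplied 3228 glycan arrays, of which those lacking an available protein sequence were dropped. The binding signal, a within-array Z-score, was averaged across arrays of the same protein sequence and across linkers. Negative scores can be read as non-binding.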

[1] = molecular target: Gal3S(b1-4)[Fuc(a1-3)]Glc
Summary of the method: as §1

Gal3S4S(b1-4)GlcNAc = molecular target: Gal3S4S(b1-4)GlcNAc
Summary of the method: as §1

Gal3S6S(b1-4)GlcNAc = molecular target: Gal3S6S(b1-4)GlcNAc
Summary of the method: as §1

Gal3S6S(b1-4)GlcNAc6S = molecular target: Gal3S6S(b1-4)GlcNAc6S
Summary of the method: as §1

Gal4S(b1-4)GlcNAc = molecular target: Gal4S(b1-4)GlcNAc
Summary of the method: as §1

Gal4S6S(b1-4)GlcNAc = molecular target: Gal4S6S(b1-4)GlcNAc
Summary of the method: as §1

Gal6S(b1-4)Glc = molecular target: Gal6S(b1-4)Glc
Summary of the method: as §1

Gal6S(b1-4)Glc6S = molecular target: Gal6S(b1-4)Glc6S
Summary of the method: as §1

Gal6S(b1-4)GlcNAc = molecular target: Gal6S(b1-4)GlcNAc
Summary of the method: as §1

Gal6S(b1-4)GlcNAc6S = molecular target: Gal6S(b1-4)GlcNAc6S
Summary of the method: as §1

GalNAc(a1-3)Gal = molecular target: GalNAc(a1-3)Gal
Summary of the method: as §1

GalNAc(a1-3)GalNAc = molecular target: GalNAc(a1-3)GalNAc
Summary of the method: as §1

GalNAc(b1-3)Gal = molecular target: GalNAc(b1-3)Gal
Summary of the method: as §1

[2] = molecular target: GalNAc(b1-3)Gal(a1-4)Gal(b1-4)GlcNAc
Summary of the method: as §1

GalNAc(b1-3)GalNAc = molecular target: GalNAc(b1-3)GalNAc
Summary of the method: as §1

GalNAc(b1-4)GlcNAc = molecular target: GalNAc(b1-4)GlcNAc
Summary of the method: as §1

Glc(a1-4)Glc = molecular target: Glc(a1-4)Glc
Summary of the method: as §1

Glc(a1-6)Glc(a1-6)Glc = molecular target: Glc(a1-6)Glc(a1-6)Glc
Summary of the method: as §1

Glc(b1-4)Glc = molecular target: Glc(b1-4)Glc
Summary of the method: as §1

Glc(b1-6)Glc = molecular target: Glc(b1-6)Glc
Summary of the method: as §1

GlcA(b1-3)Gal = molecular target: GlcA(b1-3)Gal
Summary of the method: as §1

GlcA(b1-3)GlcNAc = molecular target: GlcA(b1-3)GlcNAc
Summary of the method: as §1

GlcA(b1-6)Gal = molecular target: GlcA(b1-6)Gal
Summary of the method: as §1

[3] = molecular target: GlcNAc(a1-3)Gal(b1-4)GlcNAc
Summary of the method: as §1

[4] = molecular target: GlcNAc(a1-6)Gal(b1-4)GlcNAc
Summary of the method: as §1

[5] = molecular target: GlcNAc(b1-2)Gal(b1-3)GalNAc
Summary of the method: as §1

[6] = molecular target: GlcNAc(b1-2)Man(a1-3)[GlcNAc(b1-2)Man(a1-6)]Man(b1-4)GlcNAc(b1-4)GlcNAc
Summary of the method: as §1

GlcNAc(b1-3)Gal = molecular target: GlcNAc(b1-3)Gal
Summary of the method: as §1

[7] = molecular target: GlcNAc(b1-3)Gal(b1-3)GalNAc
Summary of the method: as §1

GlcNAc(b1-3)Gal(b1-4)Glc = molecular target: GlcNAc(b1-3)Gal(b1-4)Glc
Summary of the method: as §1

[8] = molecular target: GlcNAc(b1-3)Gal(b1-4)GlcNAc
Summary of the method: as §1

[9] = molecular target: GlcNAc(b1-3)Gal(b1-4)GlcNAc(b1-3)Gal(b1-4)GlcNAc
Summary of the method: as §1

GlcNAc(b1-3)GalNAc = molecular target: GlcNAc(b1-3)GalNAc
Summary of the method: as §1

GlcNAc(b1-3)Man = molecular target: GlcNAc(b1-3)Man
Summary of the method: as §1

[10] = molecular target: GlcNAc(b1-3)[GlcNAc(b1-4)][GlcNAc(b1-6)]GlcNAc
Summary of the method: as §1

[11] = molecular target: GlcNAc(b1-3)[GlcNAc(b1-6)]Gal(b1-4)GlcNAc
Summary of the method: as §1

B1: Surfactant Protein D (Human); Neck + Carbohydrate Recognition Domain (NCRD) (Homo sapiens) (protein)
chain: MLLFLLSALVLLTQPLGYLEAEMKTYSHRTMPSACTLVMCSSVESGLPGRDRDGREGPRGEKGDPGLPGAAGQAGMPGQAGPVGPKGDNGSVGEPGPKGDTGPSGPPGPPGVPGPAGREGALGKQGNIGPQGKPGPKGEAGPKGEVGAPGMQGSAGARGLAGPKGERGVPGERGVPGNTGAAGSAGAMGPQGSPGARGPPGLKGDKGIPGDKGAKGESGLPDVASLRQQVEALQGQVQHLQAAFSQYKKVELFPNGQSVGEKIFKTAQFVKPFTEAQLLCTQAGGQLASPRSAAENAALQQLVVAKNEAAFLSMTDSKTEGKFTYPTGESLVYSNWAPGEPNDDGGSEDCVEIYTNGKWNDRACGEKRLVVCEF
glycan array binding signal (z-score) (Gal3S(b1-4)GlcNAc6S): -0.186 | glycan array binding signal (z-score) [1]: -0.188 | glycan array binding signal (z-score) (Gal3S4S(b1-4)GlcNAc): -0.19 | glycan array binding signal (z-score) (Gal3S6S(b1-4)GlcNAc): -0.191 | glycan array binding signal (z-score) (Gal3S6S(b1-4)GlcNAc6S): -0.194 | glycan array binding signal (z-score) (Gal4S(b1-4)GlcNAc): -0.19 | glycan array binding signal (z-score) (Gal4S6S(b1-4)GlcNAc): -0.177 | glycan array binding signal (z-score) (Gal6S(b1-4)Glc): -0.177 | glycan array binding signal (z-score) (Gal6S(b1-4)Glc6S): -0.187 | glycan array binding signal (z-score) (Gal6S(b1-4)GlcNAc): -0.185 | glycan array binding signal (z-score) (Gal6S(b1-4)GlcNAc6S): -0.192 | glycan array binding signal (z-score) (GalNAc(a1-3)Gal): -0.182 | glycan array binding signal (z-score) (GalNAc(a1-3)GalNAc): -0.185 | glycan array binding signal (z-score) (GalNAc(b1-3)Gal): -0.194 | glycan array binding signal (z-score) [2]: -0.176 | glycan array binding signal (z-score) (GalNAc(b1-3)GalNAc): -0.189 | glycan array binding signal (z-score) (GalNAc(b1-4)GlcNAc): -0.154 | glycan array binding signal (z-score) (Glc(a1-4)Glc): -0.188 | glycan array binding signal (z-score) (Glc(a1-6)Glc(a1-6)Glc): -0.189 | glycan array binding signal (z-score) (Glc(b1-4)Glc): -0.187 | glycan array binding signal (z-score) (Glc(b1-6)Glc): -0.152 | glycan array binding signal (z-score) (GlcA(b1-3)Gal): -0.192 | glycan array binding signal (z-score) (GlcA(b1-3)GlcNAc): -0.182 | glycan array binding signal (z-score) (GlcA(b1-6)Gal): -0.187 | glycan array binding signal (z-score) [3]: -0.187 | glycan array binding signal (z-score) [4]: -0.18 | glycan array binding signal (z-score) [5]: -0.189 | glycan array binding signal (z-score) [6]: -0.18 | glycan array binding signal (z-score) (GlcNAc(b1-3)Gal): -0.18 | glycan array binding signal (z-score) [7]: -0.18 | glycan array binding signal (z-score) (GlcNAc(b1-3)Gal(b1-4)Glc): -0.193 | glycan array binding signal (z-score) [8]: -0.189 | glycan array binding signal (z-score) [9]: -0.186 | glycan array binding signal (z-score) (GlcNAc(b1-3)GalNAc): -0.193 | glycan array binding signal (z-score) (GlcNAc(b1-3)Man): -0.187 | glycan array binding signal (z-score) [10]: -0.153 | glycan array binding signal (z-score) [11]: -0.193
